# The other results are listed elsewhere or left out.
# How the values were obtained:
# Assay in all cases: glycan array binding signal (z-score within array); higher = stronger binding
# Conditions in all cases: glycan notation: IUPAC condensed, linker removed
# [1] = target: GlcNAc(b1-2)Man(a1-3)[GlcNAc(b1-4)][GlcNAc(b1-2)Man(a1-6)]Man(b1-4)GlcNAc(b1-4)GlcNAc
# Procedure, shortened: (§1)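 The binding signal is a Z-score computed within each array and averaged over linkers. Arrays of the same protein sequence at different concentrations or buffers were also averaged together. Data originate from 3228 arrays in the Consortium for Functional Glycomics database, kept only where the protein sequence was available.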
# [2] = target: GlcNAc(b1-2)[GlcNAc(b1-4)]Man(a1-3)[GlcNAc(b1-2)Man(a1-6)]Man(b1-4)GlcNAc(b1-4)GlcNAc
# Procedure, shortened: as §1
# [3] = target: GlcNAc(b1-2)[GlcNAc(b1-4)]Man(a1-3)[GlcNAc(b1-4)][GlcNAc(b1-2)Man(a1-6)]Man(b1-4)GlcNAc(b1-4)GlcNAc
# Procedure, shortened: as §1
# [4] = target: GlcNAc(b1-2)[GlcNAc(b1-4)]Man(a1-3)[GlcNAc(b1-4)][GlcNAc(b1-2)[GlcNAc(b1-6)]Man(a1-6)]Man(b1-4)GlcNAc(b1-4)GlcNAc
# Procedure, shortened: as §1
# [5] = target: GlcNAc(b1-2)[GlcNAc(b1-6)]Man(a1-6)[GlcNAc(b1-2)Man(a1-3)]Man(b1-4)GlcNAc(b1-4)GlcNAc
# Procedure, shortened: as §1
# [6] = target: GlcNAc(b1-2)[GlcNAc(b1-6)]Man(a1-6)[GlcNAc(b1-2)Man(a1-3)][GlcNAc(b1-4)]Man(b1-4)GlcNAc(b1-4)GlcNAc
# Procedure, shortened: as §1
# GlcNAc(b1-3)Gal = target: GlcNAc(b1-3)Gal
# Procedure, shortened: as §1
# [7] = target: GlcNAc(b1-3)Gal(b1-3)GalNAc
# Procedure, shortened: as §1
# GlcNAc(b1-3)Gal(b1-4)Glc = target: GlcNAc(b1-3)Gal(b1-4)Glc
# Procedure, shortened: as §1
# [8] = target: GlcNAc(b1-3)Gal(b1-4)GlcNAc
# Procedure, shortened: as §1
# [9] = target: GlcNAc(b1-3)Gal(b1-4)GlcNAc(b1-3)Gal(b1-4)GlcNAc
# Procedure, shortened: as §1
# GlcNAc(b1-3)GalNAc = target: GlcNAc(b1-3)GalNAc
# Procedure, shortened: as §1
# GlcNAc(b1-3)Man = target: GlcNAc(b1-3)Man
# Procedure, shortened: as §1
# [10] = target: GlcNAc(b1-3)[GlcNAc(b1-4)][GlcNAc(b1-6)]GlcNAc
# Procedure, shortened: as §1
# [11] = target: GlcNAc(b1-3)[GlcNAc(b1-6)]Gal(b1-4)GlcNAc
# Procedure, shortened: as §1
# [12] = target: GlcNAc(b1-3)[GlcNAc(b1-6)]GalNAc
# Procedure, shortened: as §1
# [13] = target: GlcNAc(b1-4)Gal(b1-4)GlcNAc
# Procedure, shortened: as §1
# GlcNAc(b1-4)GlcNAc = target: GlcNAc(b1-4)GlcNAc
# Procedure, shortened: as §1
# [14] = target: GlcNAc(b1-4)GlcNAc(b1-4)GlcNAc
# Procedure, shortened: as §1
# [15] = target: GlcNAc(b1-4)GlcNAc(b1-4)GlcNAc(b1-4)GlcNAc(b1-4)GlcNAc
# Procedure, shortened: as §1
# [16] = target: GlcNAc(b1-4)GlcNAc(b1-4)GlcNAc(b1-4)GlcNAc(b1-4)GlcNAc(b1-4)GlcNAc
# Procedure, shortened: as §1
# [17] = target: GlcNAc(b1-4)[GlcNAc(b1-6)]GalNAc
# Procedure, shortened: as §1
# [18] = target: GlcNAc(b1-6)Gal(b1-4)GlcNAc
# Procedure, shortened: as §1
# GlcNAc(b1-6)GalNAc = target: GlcNAc(b1-6)GalNAc
# Procedure, shortened: as §1
# GlcNAc3Prop(b1-4)GlcNAc = target: GlcNAc3Prop(b1-4)GlcNAc
# Procedure, shortened: as §1
# [19] = target: GlcNAc6S(b1-3)Gal(b1-4)GlcNAc
# Procedure, shortened: as §1
# Kdn(a2-3)Gal(b1-3)GalNAc = target: Kdn(a2-3)Gal(b1-3)GalNAc
# Procedure, shortened: as §1
# Kdn(a2-3)Gal(b1-3)GlcNAc = target: Kdn(a2-3)Gal(b1-3)GlcNAc
# Procedure, shortened: as §1
# Kdn(a2-3)Gal(b1-4)Glc = target: Kdn(a2-3)Gal(b1-4)Glc
# Procedure, shortened: as §1
# Kdn(a2-3)Gal(b1-4)GlcNAc = target: Kdn(a2-3)Gal(b1-4)GlcNAc
# Procedure, shortened: as §1
# [20] = target: Kdn(a2-3)Gal(b1-4)[Fuc(a1-3)]GlcNAc
# Procedure, shortened: as §1
# Kdn(a2-6)Gal(b1-4)GlcNAc = target: Kdn(a2-6)Gal(b1-4)GlcNAc
# Procedure, shortened: as §1
# [21] = target: Man(a1-2)Man(a1-2)Man(a1-3)Man
# Procedure, shortened: as §1
# [22] = target: Man(a1-2)Man(a1-2)Man(a1-6)[Man(a1-3)]Man
# Procedure, shortened: as §1
# Man(a1-2)Man(a1-3)Man = target: Man(a1-2)Man(a1-3)Man
# Procedure, shortened: as §1
# [23] = target: Man(a1-2)Man(a1-3)[Man(a1-2)Man(a1-6)]Man
# Procedure, shortened: as §1
# [24] = target: Man(a1-2)Man(a1-3)[Man(a1-2)Man(a1-6)]Man(a1-6)[Man(a1-2)Man(a1-2)Man(a1-3)]Man
# Procedure, shortened: as §1
# [25] = target: Man(a1-2)Man(a1-3)[Man(a1-2)Man(a1-6)]Man(a1-6)[Man(a1-2)Man(a1-2)Man(a1-3)]Man(b1-4)GlcNAc(b1-4)GlcNAc
# Procedure, shortened: as §1
binder,measurement,setting,value
Gal 9 (Canis lupus) (protein) MAFSSSQPPYLSPGVPFSGKIQGGLQDGLKITINGTILYCNGTRFAVNFHSGHSDSDIAFHFNPRFEEGGYVVCNTKQKGSWGSEERKMQMPFQMGNPFELCFMVNSCDFKVTVNGSHFTQYSHRVPFHYVDTLSITGAVQLSYISFQSPGVWQSSSAPITQTVIHTVQTTPGQPFPNPIIPPTAYPTPTYPMPFFTSIPGGLYPSKSIIVSGTVLPGAKRFHINLRSGNDIAFHLNPRFNENTVVRNMQINNSWGSEERSLPRKMPFVQGQSFSVWIMCEGHCFKVAVDGEHLFEYYHRLKNLLAINNMEVAGDVQLTHVQT,glycan array binding signal (z-score),[1],-0.354
same,glycan array binding signal (z-score),[2],-0.34
same,glycan array binding signal (z-score),[3],-0.349
same,glycan array binding signal (z-score),[4],-0.328
same,glycan array binding signal (z-score),[5],-0.328
same,glycan array binding signal (z-score),[6],-0.338
same,glycan array binding signal (z-score),GlcNAc(b1-3)Gal,-0.357
same,glycan array binding signal (z-score),[7],0.492
same,glycan array binding signal (z-score),GlcNAc(b1-3)Gal(b1-4)Glc,0.093
same,glycan array binding signal (z-score),[8],0.268
same,glycan array binding signal (z-score),[9],0.248
same,glycan array binding signal (z-score),GlcNAc(b1-3)GalNAc,-0.352
same,glycan array binding signal (z-score),GlcNAc(b1-3)Man,-0.347
same,glycan array binding signal (z-score),[10],-0.337
same,glycan array binding signal (z-score),[11],-0.356
same,glycan array binding signal (z-score),[12],-0.327
same,glycan array binding signal (z-score),[13],-0.336
same,glycan array binding signal (z-score),GlcNAc(b1-4)GlcNAc,-0.324
same,glycan array binding signal (z-score),[14],-0.362
same,glycan array binding signal (z-score),[15],-0.332
same,glycan array binding signal (z-score),[16],-0.339
same,glycan array binding signal (z-score),[17],-0.319
same,glycan array binding signal (z-score),[18],-0.343
same,glycan array binding signal (z-score),GlcNAc(b1-6)GalNAc,-0.35
same,glycan array binding signal (z-score),GlcNAc3Prop(b1-4)GlcNAc,-0.333
same,glycan array binding signal (z-score),[19],-0.104
same,glycan array binding signal (z-score),Kdn(a2-3)Gal(b1-3)GalNAc,0.013
same,glycan array binding signal (z-score),Kdn(a2-3)Gal(b1-3)GlcNAc,0.082
same,glycan array binding signal (z-score),Kdn(a2-3)Gal(b1-4)Glc,-0.194
same,glycan array binding signal (z-score),Kdn(a2-3)Gal(b1-4)GlcNAc,0.189
same,glycan array binding signal (z-score),[20],-0.322
same,glycan array binding signal (z-score),Kdn(a2-6)Gal(b1-4)GlcNAc,-0.335
same,glycan array binding signal (z-score),[21],-0.336
same,glycan array binding signal (z-score),[22],-0.342
same,glycan array binding signal (z-score),Man(a1-2)Man(a1-3)Man,-0.338
same,glycan array binding signal (z-score),[23],-0.359
same,glycan array binding signal (z-score),[24],-0.261
same,glycan array binding signal (z-score),[25],-0.361
